Laboratory results: PubChem BioAssay (Tox21)
Several values for one entry are separate records, joined by “and”; a condition that tells them apart may be missing. Equal values may be shown once. The shares of active, inactive and inconclusive entries below differ from those in the screen. For some assays here: Potencies beside an inconclusive call are fits to weak or partial responses and may not hold up. More than one record can exist for a structure, and the calls need not agree. Activity calls are given as the source filed them. Unless noted, calls follow the shape of the dose curve; as a rule, active = well fitted curve in the direction sought with a large enough effect in the repeat runs; inconclusive = weak or mixed curves; inactive = no such curve, though single readings can be large; an effect the other way counts as inactive or inconclusive.

What was measured:
[1] = qHTS assay to identify small molecule antagonists of the sonic hedgehog signaling (Shh) pathway (AID 1259369; calls by dose curve; also: nearly all actives have a fitted effect of over 45% in size; also: potency is read from the fitted curve at half-maximal effect; as to activity change, negative = inhibition: % is scaled to controls: 0 for no effect and ±100 for the full control effect)
Procedure, shortened: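 Inhibition of Shh signalling is measured as reduced Gli1-response-element firefly luciferase output in an NIH/3T3-derived stable reporter clone stimulated with conditioned medium for 24hr.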

[2] = target: Estrogen receptor beta (Homo sapiens) (UniProt Q92731); test: qHTS assay to identify small molecule antagonists of the estrogen receptor beta (ER-beta) signaling pathway (AID 1259378; active = well fitted inhibition curve with a large enough effect in the signal ratio in the repeat runs, not every such curve was filed as active; inconclusive = weak or mixed curves, or effect the other way; inactive = no such curve, though single readings can be large or run the other way; the % refers to the signal ratio; also: potency is read from the fitted curve at half-maximal effect; as to activity, negative = inhibition: % is scaled to controls: 0 for no effect and ±100 for the full control effect); settings: ER-beta-UAS-bla HEK293T, beta-lactamase FRET ratio, 16 h; activity, negative = inhibition: at 92.4 µM (top of the series) unless noted
Sequence of UniProt Q92731 (Q92731 whole entry, looked up): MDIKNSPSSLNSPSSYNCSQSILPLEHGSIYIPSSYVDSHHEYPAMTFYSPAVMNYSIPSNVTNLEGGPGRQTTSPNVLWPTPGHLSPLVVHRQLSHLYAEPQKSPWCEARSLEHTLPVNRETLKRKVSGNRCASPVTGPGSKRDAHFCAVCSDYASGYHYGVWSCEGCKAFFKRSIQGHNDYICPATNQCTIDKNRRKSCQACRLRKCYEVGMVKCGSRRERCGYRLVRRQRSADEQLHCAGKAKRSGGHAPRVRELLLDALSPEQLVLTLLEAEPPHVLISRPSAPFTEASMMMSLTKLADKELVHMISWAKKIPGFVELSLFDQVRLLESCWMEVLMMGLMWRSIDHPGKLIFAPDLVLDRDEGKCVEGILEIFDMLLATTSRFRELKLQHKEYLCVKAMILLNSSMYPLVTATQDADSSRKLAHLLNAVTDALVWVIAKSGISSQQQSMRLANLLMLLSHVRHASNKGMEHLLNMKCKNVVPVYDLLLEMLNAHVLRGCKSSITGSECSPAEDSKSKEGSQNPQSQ
Procedure, shortened: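 ER-beta-UAS-bla HEK293T cells in 2% charcoal-stripped FBS medium treated with compound plus 1nM final 17-beta-estradiol for 16 hr at 37C. Beta-lactamase reporter read by FRET substrate fluorescence after 2 hours at room temperature.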

[3] = qHTS assay to identify small molecule agonists of the androgen receptor (AR) signaling pathway in the presence of an antagonist - cell viability counter screen (AID 1259379); also: potency is read from the fitted curve at half-maximal effect; nearly all actives have a fitted effect of over 25% in size
Procedure, shortened: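 Fluorescence from CellTiter-Fluor, added after 15 hr and read 1 hr later, gave cell viability. Cells were MDA-kb2 exposed to compounds (15 concentrations) in the presence of 3.0uM nilutamide at 37C, 0% CO2.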

[4] = target: Thyrotropin receptor (Homo sapiens) (UniProt P16473); test: qHTS assay to identify small molecule antagonists of the thyroid stimulating hormone receptor (TSHR) signaling pathway (AID 1259385; calls by dose curve; also: nearly all actives have a fitted effect of over 20% in size; also: potency is read from the fitted curve at half-maximal effect; as to activity change, negative = inhibition: % is scaled to controls: 0 for no effect and ±100 for the full control effect); settings: TSHR-HEK293 cAMP HTRF, TSH-stimulated antagonist mode; activity change, negative = inhibition: at 92.4 µM (top of the series) unless noted
Sequence of UniProt P16473 (P16473 whole entry, looked up): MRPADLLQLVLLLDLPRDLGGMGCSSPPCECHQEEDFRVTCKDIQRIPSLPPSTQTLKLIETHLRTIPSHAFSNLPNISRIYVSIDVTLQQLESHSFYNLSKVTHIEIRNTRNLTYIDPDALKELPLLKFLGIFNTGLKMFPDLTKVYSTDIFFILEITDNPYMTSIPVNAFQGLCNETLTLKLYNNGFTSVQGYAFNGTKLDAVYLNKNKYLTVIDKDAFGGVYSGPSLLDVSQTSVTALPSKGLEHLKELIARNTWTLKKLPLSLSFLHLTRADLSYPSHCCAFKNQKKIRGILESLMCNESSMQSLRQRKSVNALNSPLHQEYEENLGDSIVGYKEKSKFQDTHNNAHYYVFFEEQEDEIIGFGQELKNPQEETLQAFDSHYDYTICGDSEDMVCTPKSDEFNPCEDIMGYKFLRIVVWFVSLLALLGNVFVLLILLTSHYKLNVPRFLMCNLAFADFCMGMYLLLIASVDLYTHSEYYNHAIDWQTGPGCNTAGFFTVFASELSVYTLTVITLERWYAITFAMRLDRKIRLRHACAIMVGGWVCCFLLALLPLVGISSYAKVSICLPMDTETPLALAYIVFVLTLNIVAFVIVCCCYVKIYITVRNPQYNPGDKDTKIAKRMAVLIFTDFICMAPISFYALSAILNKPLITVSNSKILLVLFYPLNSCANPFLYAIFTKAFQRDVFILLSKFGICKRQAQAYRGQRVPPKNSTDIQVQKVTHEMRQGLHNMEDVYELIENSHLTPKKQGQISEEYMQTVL
Procedure, shortened: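 TSHR-HEK293 cells (800/well) plated 18 h, then compounds with Ro20-1724 and TSH at 1.5 ng/mL final, 30 min at room temperature. cAMP quantified by HTRF (cAMP-d2/anti-cAMP-cryptate, 1 h); 15 concentrations in triplicate.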

[5] = target: Progesterone receptor (Homo sapiens) (UniProt P06401); test: qHTS assay to identify small molecule antagonists of the progesterone receptor (PR) signaling pathway (AID 1346795; active = well fitted inhibition curve with a large enough effect in the signal ratio in the repeat runs, not every such curve was filed as active; inconclusive = weak or mixed curves; the % refers to the signal ratio; also: potency is read from the fitted curve at half-maximal effect); settings: PR-UAS-bla HEK293T, beta-lactamase FRET ratio, 16 h; activity change, negative = inhibition: at 92.4 µM (top of the series) unless noted
Sequence of UniProt P06401 (P06401 whole entry, looked up): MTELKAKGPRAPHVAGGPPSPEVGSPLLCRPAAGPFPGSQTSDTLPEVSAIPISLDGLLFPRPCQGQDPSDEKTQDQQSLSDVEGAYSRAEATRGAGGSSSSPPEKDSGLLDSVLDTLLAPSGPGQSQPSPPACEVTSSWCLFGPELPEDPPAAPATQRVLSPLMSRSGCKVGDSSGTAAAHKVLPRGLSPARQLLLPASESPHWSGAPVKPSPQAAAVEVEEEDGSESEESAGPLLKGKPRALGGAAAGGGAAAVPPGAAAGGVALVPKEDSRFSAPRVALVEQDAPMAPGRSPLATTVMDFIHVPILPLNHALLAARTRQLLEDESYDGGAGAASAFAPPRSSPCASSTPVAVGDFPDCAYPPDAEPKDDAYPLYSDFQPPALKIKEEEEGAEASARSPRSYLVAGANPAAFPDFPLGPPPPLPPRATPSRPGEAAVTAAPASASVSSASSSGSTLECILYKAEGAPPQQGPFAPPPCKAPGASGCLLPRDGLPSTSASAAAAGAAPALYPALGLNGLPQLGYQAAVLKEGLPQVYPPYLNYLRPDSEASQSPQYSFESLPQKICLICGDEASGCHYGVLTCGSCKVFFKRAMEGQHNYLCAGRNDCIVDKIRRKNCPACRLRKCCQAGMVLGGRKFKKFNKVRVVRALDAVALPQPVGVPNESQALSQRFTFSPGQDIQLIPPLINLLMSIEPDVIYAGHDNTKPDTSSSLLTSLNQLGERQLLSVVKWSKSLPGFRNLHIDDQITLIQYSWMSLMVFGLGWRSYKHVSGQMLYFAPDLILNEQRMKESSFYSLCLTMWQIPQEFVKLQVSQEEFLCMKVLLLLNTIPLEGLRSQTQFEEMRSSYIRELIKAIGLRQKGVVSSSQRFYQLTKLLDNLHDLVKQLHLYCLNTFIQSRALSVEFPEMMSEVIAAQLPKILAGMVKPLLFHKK
Procedure, shortened: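 Read-out is fluorescence from the LiveBLAzer B/G FRET substrate, cleaved by a UAS-controlled beta-lactamase in PR-UAS-bla HEK293T cells after 16 hr exposure to compound plus 1 nM promegestone (final), followed by 2 hr at room temperature.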

[6] = qHTS assay to identify small molecule antagonists of the progesterone receptor (PR) signaling pathway - cell viability counter screen (AID 1346798); also: potency is read from the fitted curve at half-maximal effect; nearly all actives have a fitted effect of over 50% in size
Procedure, shortened: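 HEK293T PR-UAS-bla, 2% charcoal-stripped FBS; 4 hr pre-plate; cpd + R5020, 16 h 37C; LiveBLAzer read first; then CellTiter-Glo 30 min RT, luminescence.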

[7] = qHTS assay to identify small molecule agonists of the progesterone receptor (PR) signaling pathway - cell viability counter screen (AID 1346799; calls by dose curve; also: nearly all actives have a fitted effect of over 45% in size; also: potency is read from the fitted curve at half-maximal effect)
Procedure, shortened: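 Luminescence from CellTiter-Glo, added after the beta-lactamase FRET read in the same wells, gave cytotoxicity in PR-UAS-bla HEK293T cells treated with compounds for 16 hr at 37C.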

[8] = qHTS assay to identify small molecule agonists of the TGF-beta/Smad signaling pathway - cell viability counter screen (AID 1346829); also: nearly all actives have a fitted effect of over 45% in size; also: potency is read from the fitted curve at half-maximal effect
Procedure, shortened: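 HEK 293T SBE-bla line, 5 hr compound exposure at 37 C, multiplexed CellTiter-Glo viability read by luminescence.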

[9] = qHTS assay to identify small molecule agonists of the estrogen receptor beta (ER-beta) signaling pathway - cell viability counter screen (AID 1259380); also: potency is read from the fitted curve at half-maximal effect; nearly all actives have a fitted effect of over 30% in size
Procedure, shortened: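 Same-well viability counter screen. Cells: ER-beta-UAS-bla HEK293T, plated 6 hr before compound, in 2% charcoal-stripped FBS. Compound exposure 16 hr, 37C; viability by CellTiter-Glo luminescence after 30 min at room temperature.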

[10] = qHTS assay to identify small molecule antagonists of the estrogen receptor beta (ER-beta) signaling pathway - cell viability counter screen (AID 1259382); also: nearly all actives have a fitted effect of over 55% in size; also: potency is read from the fitted curve at half-maximal effect
Procedure, shortened: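 Following a 6 hr plating period, HEK293T cells carrying a UAS-driven beta-lactamase reporter under ER-beta control received compounds and 1nM E2 (final). After 16 hr at 37C and 2 hr substrate loading, CellTiter-Glo luminescence indicated viability.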

[11] = target: Estrogen receptor (Homo sapiens) (UniProt P03372); test: qHTS assay to identify small molecule agonists of the estrogen receptor alpha (ER-alpha) signaling pathway in the presence of an antagonist (AID 1259383; calls by dose curve; also: top concentration of the series differs between compounds; % is scaled to controls: 0 for no effect and ±100 for the full control effect; nearly all actives have a fitted effect of over 15% in size)
Sequence of UniProt P03372 (P03372 whole entry, looked up): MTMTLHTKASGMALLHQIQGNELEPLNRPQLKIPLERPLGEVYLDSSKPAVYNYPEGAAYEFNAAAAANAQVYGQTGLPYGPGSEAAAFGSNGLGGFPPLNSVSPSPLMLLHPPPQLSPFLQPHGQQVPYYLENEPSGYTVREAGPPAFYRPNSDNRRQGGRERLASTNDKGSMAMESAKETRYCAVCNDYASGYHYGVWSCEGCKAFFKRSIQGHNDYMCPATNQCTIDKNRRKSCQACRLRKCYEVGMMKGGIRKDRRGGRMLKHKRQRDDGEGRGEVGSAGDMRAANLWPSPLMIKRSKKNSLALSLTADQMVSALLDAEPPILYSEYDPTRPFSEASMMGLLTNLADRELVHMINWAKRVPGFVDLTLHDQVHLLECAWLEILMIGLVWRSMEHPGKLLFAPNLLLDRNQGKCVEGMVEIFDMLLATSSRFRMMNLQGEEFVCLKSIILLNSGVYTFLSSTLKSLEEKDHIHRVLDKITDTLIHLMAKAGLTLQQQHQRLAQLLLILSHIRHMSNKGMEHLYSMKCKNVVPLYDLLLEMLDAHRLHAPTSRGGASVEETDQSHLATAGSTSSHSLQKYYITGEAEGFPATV
Procedure, shortened: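 Cells are hormone-deprived for 5 days (charcoal-stripped FBS, no phenol red), plated for 24hr, spiked with 10.0nM ICI-182,780, then dosed at 15 concentrations. After 22hr at 37C, ONE-Glo luminescence reports ERE-luciferase activity.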

[12] = qHTS assay to identify small molecule agonists of the estrogen receptor alpha (ER-alpha) signaling pathway in the presence of an antagonist - cell viability counter screen (AID 1259386);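 also: potency is read from the fitted curve at half-maximal effect; cells exposed to compounds for 22 h at 37 °C before the viability read; nearly all actives have a fitted effect of over 30% in size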
Procedure, shortened: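 Cells are starved of estrogens for 5 days in charcoal-stripped serum, seeded for 24hr and co-treated with ICI-182,780 (10.0nM final) and test compounds. After 22hr at 37C, viability is read as CellTiter-Fluor fluorescence.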

[13] = qHTS assay to identify small molecule antagonists of the TGF-beta/Smad signaling pathway - cell viability counter screen (AID 1346824); also: % is scaled to controls: 0 for no effect and ±100 for the full control effect; nearly all actives have a fitted effect of over 50% in size
Procedure, shortened: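 SBE-bla HEK 293T cells, incubated overnight, then compound plus 0.25 ng/mL TGF-beta1 (stock added) for 5 hr at 37 C. Viability was read in the same wells by CellTiter-Glo luminescence after 30 min at room temperature.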
Tags tell the direction and shape of the fitted curve or compound fluorescence and quenching.

CNCCCCOc1ccccc1Cc1ccccc1
active: Potency [1] 10.6 µM | Potency [2] 11.9 µM | Potency [5] 26.6 µM | Potency [6] 6.68 µM | Potency [7] 6.68 µM
inconclusive: Potency [3] 33.5 µM [cytotoxic, single point] | Potency [4] 26.6 µM [falling, partial curve] | Potency [8] 1.51 µM [rising, partial curve]

CN(C)CCOC(c1ccccc1)c1ccccc1
inconclusive: Potency [1] 30.8 µM [inhibitor] | activity, negative = inhibition [2] -37.9% | Potency [9] 77.4 µM [cytotoxic, single point] and 68.6 µM [cytotoxic, partial curve] | Potency [10] 61.1 µM [cytotoxic] | Potency [6] 69 µM [cytotoxic, single point] and 68.6 µM [cytotoxic, single point] | Potency [7] 61.1 µM [cytotoxic, partial curve]

Cc1ccc(S)cc1
inconclusive: Potency [1] 27.3 µM [inhibitor, single point] | activity, negative = inhibition [2] -20.9% | Potency [9] 27.3 µM [cytotoxic, full curve] | Potency [7] 13.7 µM [cytotoxic, full curve]

Cc1nc2ccccc2n1Cc1ccc(Cl)cc1
inactive: Potency [10] | Potency [11]
inconclusive: Potency [1] 2.66 µM [inhibitor, full curve] | activity, negative = inhibition [2] -49.9% [at 42.5 µM] | Potency [9] 26.6 µM [cytotoxic, single point] | Potency [6] 23.7 µM [cytotoxic, partial curve, poor fit] | Potency [7] 33.5 µM [cytotoxic, single point]
active: Potency [5] 13.3 µM

C/C=C/c1ccc(OCC)c(O)c1
inactive: Potency [10]
inconclusive: Potency [1] 0.611 µM [inhibitor, single point] | activity, negative = inhibition [2] 24.4%

c1ccc(CN(Cc2ccccc2)Cc2ccccc2)cc1
inconclusive: activity, negative = inhibition [2] -32.7% | Potency [9] 68.5 µM [cytotoxic, single point] | activity change, negative = inhibition [4] 5.87% | Potency [5] 19.3 µM [falling, full curve]
inactive: Potency [1] | Potency [7]

CC(C)(c1ccc(Oc2ccc(N)cc2)cc1)c1ccc(Oc2ccc(N)cc2)cc1
active: Potency [3] 54.5 µM | Potency [12] 54.5 µM | Potency [5] 27.3 µM
inactive: Potency [13]
inconclusive: Potency [1] 34.4 µM [inhibitor, partial curve, poor fit] | Potency [2] 61.1 µM [cytotoxic, partial curve, poor fit] | Potency [9] 0.969 µM [cytotoxic, full curve] | Potency [10] 48.6 µM [cytotoxic, partial curve, poor fit] | activity change, negative = inhibition [4] 8.5% | Potency [6] 12.2 µM [rising, full curve]

c1cc(CN2CCCCC2)cc(OCCCNc2nc3ccccc3s2)c1
inconclusive: Potency [3] 33.5 µM [cytotoxic, single point] | Potency [9] 5.31 µM [cytotoxic, full curve] | Potency [12] 26.6 µM [cytotoxic, partial curve] | Potency [5] 26.6 µM [falling, partial curve] | Potency [7] 33.5 µM [rising, single point]
active: Potency [1] 4.73 µM | Potency [2] 23.7 µM | Potency [4] 29.8 µM

CC1=C(CC(=O)O)c2cc(F)ccc2/C1=C\c1ccc(S(C)(=O)=O)cc1
inconclusive: Potency [1] 7.5 µM [inhibitor, single point] | activity, negative = inhibition [2] 8.02% [at 42.5 µM] | Potency [9] 37.6 µM [cytotoxic, single point] | Potency [12] 26.6 µM [cytotoxic, partial curve, poor fit]

CCCCNc1ccc(C(=O)OCCOCCOCCOCCOCCOCCOCCOCCOCCOC)cc1
inactive: Potency [2]
inconclusive: Potency [1] 7.5 µM [inhibitor, single point] | Potency [9] 33.5 µM [rising, single point] | Potency [12] 33.5 µM [cytotoxic, partial curve] | Potency [6] 7.5 µM [rising, partial curve] | Potency [7] 10.6 µM [rising, partial curve]

Clc1ccc(Cn2c(CN3CCCC3)nc3ccccc32)cc1
inactive: Potency [8]
active: Potency [2] 11.9 µM | Potency [6] 6.68 µM | Potency [7] 7.5 µM
inconclusive: Potency [1] 13.3 µM [inhibitor, partial curve] | Potency [9] 11.9 µM [cytotoxic, partial curve] | Potency [10] 23.7 µM [cytotoxic, partial curve] | Potency [4] 37.6 µM [falling, single point]
